From PubChem BioAssay (Tox21)
The source made the active and inactive calls. Unless noted, the call rests on the fitted dose curve; in most records, active means well fitted curve in the direction sought with a large enough effect in the repeat runs; inconclusive means weak or mixed curves; inactive means no such curve, though single readings can be large; an effect the other way counts as inactive or inconclusive.

Tests used:
[1] = qHTS assay for small molecules that induce genotoxicity in human embryonic kidney cells expressing luciferase-tagged ATAD5 - cell viability (AID 651634; calls by dose curve; further: nearly all actives have a fitted effect of over 25% in size; further: potency means the concentration at half of the fitted maximal effect; on activity, negative = cytotoxicity: on the % scale 0 is the no-effect control and ±100 the full control effect)
Summary of the method: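 HEK293T cells carrying luciferase-tagged ATAD5, 2,000 cells/well, exposed to compound for 15.5 hr at 37C. Viability read as live-cell protease activity by CellTiter-Fluor fluorescence after 30 min at 37C.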

[2] = qHTS assay for small molecule disruptors of the mitochondrial membrane potential - cell viability (AID 720634; calls by dose curve; further: nearly all actives have a fitted effect of over 20% in size; further: potency means the concentration at half of the fitted maximal effect)
Summary of the method: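 HepG2 cells, 2,000 per well, attached overnight, then treated 1 hr at 37 C, 5% CO2. Viability read as ATP by CellTiter-Glo luminescence after 30 min at room temperature. Read in the same wells as the m-MPI membrane-potential dye assay.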

[3] = qHTS assay for small molecule disruptors of the mitochondrial membrane potential (AID 720635); conditions: HepG2 mitochondrial membrane potential, Mito-MPS dye ratio; ratio activity, negative = MMP loss: at 83.2 µM (top of the series) unless noted; further: potency means the concentration at half of the fitted maximal effect
Summary of the method: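 HepG2 cells (2,000/well) attached overnight at 37C, then took compound for 1 hr at 37C, 5% CO2. Mito-MPS dye was added for 30 min; fluorescence was read at 490/535 nm (monomers) and 540/590 nm (aggregates).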

[4] = qHTS assay to test for compound auto fluorescence at 460 nm (blue) in HepG2 cells (AID 720687); further: on the % scale 0 is the no-effect control and ±100 the full control effect
Summary of the method: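 Cells (2,000/well in MEM with 10% FBS) attached overnight at 37 C, then were exposed to compound or DMSO for 1 hr at 37 C, 5% CO2. Fluorescence read at Ex/Em 405/460 nm, expressed as triamterene-equivalent signal.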

[5] = qHTS assay for identifying genotoxic compounds that show differential cytotoxicity against isogenic chicken DT40 cell lines with known DNA damage response pathways - wild type cell line (AID 743012); conditions: DT40 wild type chicken cells viability, CellTiter-Glo, 40 h; activity change, negative = cytotoxicity: at 68.4 µM (top of the series) unless noted; further: nearly all actives have a fitted effect of over 60% in size; further: potency means the concentration at half of the fitted maximal effect
Summary of the method: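 Wild-type DT40 cells (300/well) exposed to compounds for 40 hours at 37 C/5% CO2. Viability read by CellTiter-Glo luminescence after 30 min at room temperature.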

[6] = qHTS assay for identifying genotoxic compounds that show differential cytotoxicity against isogenic chicken DT40 cell lines with known DNA damage response pathways - Rev3 mutant cell line (AID 743014); conditions: chicken DT40 Rev3-/- viability, CellTiter-Glo, 40 h; activity, negative = cytotoxicity: at 68.4 µM (top of the series) unless noted; further: nearly all actives have a fitted effect of over 55% in size; further: potency means the concentration at half of the fitted maximal effect
[7] = target: Estrogen receptor (Homo sapiens) (UniProt P03372); test: qHTS assay to identify small molecule agonists of the estrogen receptor alpha (ER-alpha) signaling pathway using the BG1 cell line (AID 743079); conditions: BG1Luc4E2 cells, ERE-luciferase agonist, 22 h; activation: at 70.3 µM (top of the series) unless noted; further: nearly all actives have a fitted effect of over 20% in size; further: potency means the concentration at half of the fitted maximal effect
[8] = target: Glucocorticoid receptor (Homo sapiens) (UniProt P04150); test: qHTS assay to identify small molecule agonists of the glucocorticoid receptor (GR) signaling pathway (AID 720691; active means well fitted activation curve with a large enough effect in the signal ratio in the repeat runs, not every such curve was filed as active; inconclusive means weak or mixed curves, or effect the other way; inactive means no such curve, though single readings can be large or run the other way; the % refers to the signal ratio; further: potency means the concentration at half of the fitted maximal effect); conditions: GR-bla HeLa, beta-lactamase reporter ratio, 18 h; activation: at 62.4 µM (top of the series) unless noted
Summary of the method: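 GR-bla HeLa cells carrying a GRE-driven beta-lactamase reporter, exposed to compounds for 18 h at 37 C. Reporter activation read as fluorescence after 2 h with LiveBLAzer B/G FRET substrate at room temperature.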

[9] = target: Glucocorticoid receptor (Homo sapiens) (UniProt P04150); test: qHTS assay to identify small molecule antagonists of the glucocorticoid receptor (GR) signaling pathway (AID 720692; active means well fitted inhibition curve with a large enough effect in the signal ratio in the repeat runs, not every such curve was filed as active; inconclusive means weak or mixed curves, or effect the other way; inactive means no such curve, though single readings can be large or run the other way; the % refers to the signal ratio; further: potency means the concentration at half of the fitted maximal effect); conditions: GR-bla HeLa, beta-lactamase FRET ratio, dexamethasone-stimulated, 18 h; activity change, negative = inhibition: at 58.5 µM (top of the series) unless noted
Summary of the method: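 GR-bla HeLa cells carrying a GRE-driven beta-lactamase reporter received compound after 4 h plating, then dexamethasone (5 nM final). After 18 h at 37C, the FRET substrate was loaded for 2 h at room temperature and fluorescence read.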

[10] = qHTS assay to identify small molecule antagonists of the estrogen receptor alpha (ER-alpha) signaling pathway - cell viability counter screen (AID 743074; calls by dose curve;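 further: HEK293 cells carrying ER-alpha-UAS-bla reporter stimulated with 17beta-estradiol; nearly all actives have a fitted effect of over 45% in size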; further: potency means the concentration at half of the fitted maximal effect)
[11] = target: Aryl hydrocarbon receptor (Homo sapiens) (UniProt P35869); test: qHTS assay to identify small molecule that activate the aryl hydrocarbon receptor (AhR) signaling pathway (AID 743085); further: nearly all actives have a fitted effect of over 15% in size; further: potency means the concentration at half of the fitted maximal effect
Summary of the method: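 HepG2 cells stably carrying a 20-DRE firefly luciferase reporter (HG2L7.5c1) treated with compound for 24 hr at 37C. Luciferase read by ONE-Glo luminescence, with CellTiter-Fluor viability read first.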

[12] = target: Peroxisome proliferator-activated receptor gamma (Homo sapiens) (UniProt P37231); test: qHTS assay to identify small molecule agonists of the peroxisome proliferator-activated receptor gamma (PPARg) signaling pathway (AID 743094; active means well fitted activation curve with a large enough effect in the signal ratio in the repeat runs, not every such curve was filed as active; inconclusive means weak or mixed curves, or effect the other way; inactive means no such curve, though single readings can be large or run the other way; the % refers to the signal ratio; further: potency means the concentration at half of the fitted maximal effect); conditions: HEK293H PPARg-UAS-bla, beta-lactamase FRET ratio, 17 h; activation: at 57 µM (top of the series) unless noted
Summary of the method: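 GeneBLAzer PPARg UAS-bla HEK293H cells were plated, rested 5 h, then exposed to compounds for 17 h at 37C. Beta-lactamase activity was read by LiveBLAzer B/G FRET substrate fluorescence after 1 h at room temperature.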

[13] = target: Androgen receptor (Homo sapiens) (UniProt P10275); test: qHTS assay to identify small molecule antagonists of the androgen receptor (AR) signaling pathway using the MDA cell line (AID 743042; further: on the % scale 0 is the no-effect control and ±100 the full control effect; nearly all actives have a fitted effect of over 55% in size)
Summary of the method: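 MDA-kb2 cells (human breast carcinoma, stably carrying an MMTV-luciferase reporter responsive to AR and GR) were plated at 3,000 cells/well and preincubated 5 hr at 37C, then given compound plus R1881 agonist for 16 h. ONE-Glo luminescence was read.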

[14] = target: Estrogen receptor (Homo sapiens) (UniProt P03372); test: qHTS assay to identify small molecule antagonists of the estrogen receptor alpha (ER-alpha) signaling pathway (AID 743069; active means well fitted curve in the direction sought with a large enough effect in the signal ratio in the repeat runs, not every such curve was filed as active; inconclusive means weak or mixed curves, or effect the other way; inactive means no such curve, though single readings can be large or run the other way; the % refers to the signal ratio; further: potency means the concentration at half of the fitted maximal effect); conditions: HEK293 ER-alpha-UAS-bla, beta-lactamase ratio, antagonist mode; activity, negative = inhibition: at 69.4 µM (top of the series) unless noted
Summary of the method: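 Estradiol-stimulated ER-alpha-UAS-bla HEK293 cells, 18 hr compound exposure at 37C. LiveBLAzer B/G substrate, 2 hr RT, fluorescence read.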

[15] = qHTS assay to identify small molecule antagonists of the estrogen receptor alpha (ER-alpha) signaling pathway using the BG1 cell line - cell viability counter screen (AID 743081); conditions: BG1Luc4E2 viability, CellTiter-Fluor, 22 h; activity change, negative = cytotoxicity: at 70.3 µM (top of the series) unless noted;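 further: compound given together with 17beta-estradiol as the ER stimulus; potency means the concentration at half of the fitted maximal effect; nearly all actives have a fitted effect of over 45% in size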
[16] = target: Estrogen receptor (Homo sapiens) (UniProt P03372); test: qHTS assay to identify small molecule agonists of the estrogen receptor alpha (ER-alpha) signaling pathway (AID 743075; calls by dose curve;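 further: HEK293 GripTite cells with ER-alpha and UAS-driven beta-lactamase reporter; on the % scale 0 is the no-effect control and ±100 the full control effect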); conditions: HEK293 ER-alpha-UAS-bla, beta-lactamase FRET ratio, 18 h; activation: at 70.1 µM (top of the series)
[17] = qHTS assay to identify small molecule antagonists of the estrogen receptor alpha (ER-alpha) signaling pathway using the BG1 cell line (AID 743080; calls by dose curve;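 further: BG1 cells stimulated with 17beta-estradiol alongside compound; potency means the concentration at half of the fitted maximal effect; nearly all actives have a fitted effect of over 25% in size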); conditions: BG1Luc4E2 ERE-luciferase antagonist mode, luminescence; activity change, negative = inhibition: at 70.3 µM (top of the series) unless noted
Summary of the method: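 Quantitative HTS on the Tox21 10K library: BG1 cells with endogenous ER-alpha and ERE-luciferase reporter, 17beta-estradiol stimulation, 21.5 h compound exposure, luminescence endpoint with parallel fluorescence cytotoxicity counter-read.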

[18] = qHTS assay to identify small molecule antagonists of the androgen receptor (AR) signaling pathway - cell viability counter screen (AID 743033; further: potency means the concentration at half of the fitted maximal effect; nearly all actives have a fitted effect of over 45% in size); conditions: AR-bla HEK293 viability, CellTiter-Glo luminescence, 16 h; activity change, negative = cytotoxicity: at 58.5 µM (top of the series) unless noted
[19] = target: Androgen receptor (Homo sapiens) (UniProt P10275); test: qHTS assay to identify small molecule antagonists of the androgen receptor (AR) signaling pathway (AID 743035; active means well fitted inhibition curve with a large enough effect in the signal ratio in the repeat runs, not every such curve was filed as active; inconclusive means weak or mixed curves, or effect the other way; inactive means no such curve, though single readings can be large or run the other way; the % refers to the signal ratio; further: on the % scale 0 is the no-effect control and ±100 the full control effect); conditions: HEK293 AR-UAS-bla, R1881-stimulated, beta-lactamase FRET, 16 h; activity change, negative = inhibition: at 58.5 µM (top of the series) unless noted
Summary of the method: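 HEK293 cells stably carrying UAS-beta-lactamase reporter, 2,000/well, given compounds plus R1881 agonist and incubated 16 h at 37C. LiveBLAzer B/G FRET substrate then added for 2 h at room temperature before fluorescence reading.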

[20] = qHTS assay to identify small molecule antagonists of the thyroid receptor (TR) signaling pathway - cell viability counter screen (AID 743064); conditions: GH3.TRE-Luc viability, CellTiter-Fluor, 24 h; activity change, negative = cytotoxic: at 70.3 µM (top of the series) unless noted; further: potency means the concentration at half of the fitted maximal effect; nearly all actives have a fitted effect of over 50% in size
Summary of the method: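 GH3.TRE-Luc rat pituitary cells dosed after 4 hr plating, co-stimulated with T3 at 1 nM final, incubated 23.5 h at 37 C. Viability measured in the same wells by CellTiter-Fluor fluorescence after 30 min further at 37 C.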

Aromatase (Homo sapiens) = Aromatase (Homo sapiens) (UniProt P11511); test: qHTS assay to identify aromatase inhibitors (AID 743083); further: potency means the concentration at half of the fitted maximal effect; nearly all actives have a fitted effect of over 55% in size
[21] = qHTS assay to identify small molecule that activate the aryl hydrocarbon receptor (AhR) signaling pathway - cell viability counter screen (AID 743086); further: potency means the concentration at half of the fitted maximal effect; nearly all actives have a fitted effect of over 45% in size
Summary of the method: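 HepG2-AhR-luc (HG2L7.5c1) cells, 4000/well, were preincubated 5 h at 37C, exposed to compound in qHTS format for 24 hr at 37C, then given CellTiter-Fluor for 30 min; viability was read as fluorescence in the reporter wells.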

[22] = qHTS assay for identifying genotoxic compounds that show differential cytotoxicity against isogenic chicken DT40 cell lines with known DNA damage response pathways - Rad54/Ku70 mutant cell line (AID 743015); conditions: DT40 Rad54/Ku70 mutant viability, CellTiter-Glo, 40 h; activity change, negative = cytotoxicity: at 66.8 µM (top of the series) unless noted; further: potency means the concentration at half of the fitted maximal effect; nearly all actives have a fitted effect of over 60% in size
[23] = target: Androgen receptor (Homo sapiens) (UniProt P10275); test: qHTS assay to identify small molecule agonists of the androgen receptor (AR) signaling pathway (AID 743036; active means well fitted activation curve with a large enough effect in the signal ratio in the repeat runs, with a control signal flat, not every such curve was filed as active; inconclusive means weak or mixed curves, or effect the other way; inactive means no such curve, though single readings can be large or run the other way; the % refers to the signal ratio; further: potency means the concentration at half of the fitted maximal effect); conditions: HEK293 AR-UAS-bla GripTite, beta-lactamase FRET ratio, 16 h; activation: at 62.4 µM (top of the series) unless noted
Summary of the method: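 AR-UAS-bla HEK293 cells, plated 4 h before dosing, were treated with compound for 16 h at 37C. beta-Lactamase reporter read after 2 h with LiveBLAzer B/G FRET substrate at room temperature.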

[24] = qHTS assay to identify small molecule antagonists of the androgen receptor (AR) signaling pathway using the MDA cell line - cell viability counter screen (AID 743041); conditions: MDA-kb2 viability, CellTiter-Fluor, 16 h, cells co-treated with R1881 androgen agonist; viability change, negative = cytotoxic: at 70.3 µM (top of the series)
Summary of the method: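 Viability counter screen run alongside the AR antagonist reporter: cells seeded 5 h before compound, R1881 added, 16 h incubation at 37C without CO2, fluorescent CellTiter-Fluor signal quantified.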
Tags describe the fitted curve by direction and shape or compound fluorescence and quenching.

Chain of UniProt P04150 (P04150 whole entry, looked up): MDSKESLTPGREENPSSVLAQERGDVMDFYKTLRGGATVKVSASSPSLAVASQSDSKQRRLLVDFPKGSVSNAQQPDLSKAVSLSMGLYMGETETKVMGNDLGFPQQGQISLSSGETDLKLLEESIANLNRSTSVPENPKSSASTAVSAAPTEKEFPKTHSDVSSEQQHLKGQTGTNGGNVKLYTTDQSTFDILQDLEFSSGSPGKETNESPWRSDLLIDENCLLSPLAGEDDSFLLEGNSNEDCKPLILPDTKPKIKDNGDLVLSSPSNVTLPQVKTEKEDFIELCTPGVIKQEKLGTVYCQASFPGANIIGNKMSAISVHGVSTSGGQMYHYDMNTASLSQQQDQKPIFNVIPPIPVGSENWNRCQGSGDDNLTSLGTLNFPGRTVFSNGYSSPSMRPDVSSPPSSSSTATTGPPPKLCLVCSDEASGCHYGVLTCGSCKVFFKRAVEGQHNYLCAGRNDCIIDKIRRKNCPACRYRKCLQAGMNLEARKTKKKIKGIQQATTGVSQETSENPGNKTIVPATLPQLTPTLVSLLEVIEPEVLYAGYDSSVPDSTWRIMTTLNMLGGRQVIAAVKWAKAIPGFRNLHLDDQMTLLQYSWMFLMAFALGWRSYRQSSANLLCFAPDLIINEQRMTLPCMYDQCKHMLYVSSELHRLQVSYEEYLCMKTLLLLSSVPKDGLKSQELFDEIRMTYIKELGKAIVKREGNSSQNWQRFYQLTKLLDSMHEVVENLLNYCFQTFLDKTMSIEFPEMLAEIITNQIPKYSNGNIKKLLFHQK
Chain of UniProt P10275 (P10275 whole entry, looked up): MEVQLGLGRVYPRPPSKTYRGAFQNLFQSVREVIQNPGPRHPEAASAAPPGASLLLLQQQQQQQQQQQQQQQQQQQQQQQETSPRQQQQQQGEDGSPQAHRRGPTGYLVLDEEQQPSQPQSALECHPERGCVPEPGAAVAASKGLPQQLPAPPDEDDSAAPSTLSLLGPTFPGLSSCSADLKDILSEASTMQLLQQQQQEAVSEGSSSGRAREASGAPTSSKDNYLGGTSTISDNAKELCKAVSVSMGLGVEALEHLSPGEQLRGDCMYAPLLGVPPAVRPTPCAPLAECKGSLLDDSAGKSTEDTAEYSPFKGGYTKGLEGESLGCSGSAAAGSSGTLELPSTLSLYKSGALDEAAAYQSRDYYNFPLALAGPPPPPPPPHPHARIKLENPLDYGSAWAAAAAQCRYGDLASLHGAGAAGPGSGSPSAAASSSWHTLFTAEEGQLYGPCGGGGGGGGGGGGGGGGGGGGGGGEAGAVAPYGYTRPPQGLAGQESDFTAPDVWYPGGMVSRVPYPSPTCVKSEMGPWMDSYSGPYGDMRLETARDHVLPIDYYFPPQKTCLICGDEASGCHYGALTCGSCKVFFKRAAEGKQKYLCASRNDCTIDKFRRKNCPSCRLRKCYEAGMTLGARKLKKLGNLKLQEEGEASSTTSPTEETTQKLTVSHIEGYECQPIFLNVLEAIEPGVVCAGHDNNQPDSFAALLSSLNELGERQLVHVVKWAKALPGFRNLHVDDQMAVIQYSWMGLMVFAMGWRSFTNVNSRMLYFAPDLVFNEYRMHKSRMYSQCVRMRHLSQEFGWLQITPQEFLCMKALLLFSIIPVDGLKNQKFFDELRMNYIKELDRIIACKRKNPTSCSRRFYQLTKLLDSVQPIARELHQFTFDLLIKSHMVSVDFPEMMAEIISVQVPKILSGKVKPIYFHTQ
Chain of UniProt P03372 (P03372 whole entry, looked up): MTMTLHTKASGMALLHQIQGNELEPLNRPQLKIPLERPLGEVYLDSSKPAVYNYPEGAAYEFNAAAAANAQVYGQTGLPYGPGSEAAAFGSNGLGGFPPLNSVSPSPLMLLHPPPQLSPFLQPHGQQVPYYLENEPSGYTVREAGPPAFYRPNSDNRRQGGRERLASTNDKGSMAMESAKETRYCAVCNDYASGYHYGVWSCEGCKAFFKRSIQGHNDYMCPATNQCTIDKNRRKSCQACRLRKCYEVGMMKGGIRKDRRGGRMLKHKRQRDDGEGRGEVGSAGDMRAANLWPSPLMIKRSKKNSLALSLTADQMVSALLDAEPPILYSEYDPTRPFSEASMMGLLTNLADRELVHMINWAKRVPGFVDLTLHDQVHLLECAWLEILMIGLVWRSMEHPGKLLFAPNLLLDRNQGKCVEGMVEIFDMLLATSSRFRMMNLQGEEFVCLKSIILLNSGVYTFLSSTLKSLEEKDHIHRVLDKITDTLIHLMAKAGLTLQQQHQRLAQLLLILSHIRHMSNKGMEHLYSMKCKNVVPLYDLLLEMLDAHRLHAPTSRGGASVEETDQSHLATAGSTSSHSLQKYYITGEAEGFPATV
Chain of UniProt P35869 (P35869 whole entry, looked up): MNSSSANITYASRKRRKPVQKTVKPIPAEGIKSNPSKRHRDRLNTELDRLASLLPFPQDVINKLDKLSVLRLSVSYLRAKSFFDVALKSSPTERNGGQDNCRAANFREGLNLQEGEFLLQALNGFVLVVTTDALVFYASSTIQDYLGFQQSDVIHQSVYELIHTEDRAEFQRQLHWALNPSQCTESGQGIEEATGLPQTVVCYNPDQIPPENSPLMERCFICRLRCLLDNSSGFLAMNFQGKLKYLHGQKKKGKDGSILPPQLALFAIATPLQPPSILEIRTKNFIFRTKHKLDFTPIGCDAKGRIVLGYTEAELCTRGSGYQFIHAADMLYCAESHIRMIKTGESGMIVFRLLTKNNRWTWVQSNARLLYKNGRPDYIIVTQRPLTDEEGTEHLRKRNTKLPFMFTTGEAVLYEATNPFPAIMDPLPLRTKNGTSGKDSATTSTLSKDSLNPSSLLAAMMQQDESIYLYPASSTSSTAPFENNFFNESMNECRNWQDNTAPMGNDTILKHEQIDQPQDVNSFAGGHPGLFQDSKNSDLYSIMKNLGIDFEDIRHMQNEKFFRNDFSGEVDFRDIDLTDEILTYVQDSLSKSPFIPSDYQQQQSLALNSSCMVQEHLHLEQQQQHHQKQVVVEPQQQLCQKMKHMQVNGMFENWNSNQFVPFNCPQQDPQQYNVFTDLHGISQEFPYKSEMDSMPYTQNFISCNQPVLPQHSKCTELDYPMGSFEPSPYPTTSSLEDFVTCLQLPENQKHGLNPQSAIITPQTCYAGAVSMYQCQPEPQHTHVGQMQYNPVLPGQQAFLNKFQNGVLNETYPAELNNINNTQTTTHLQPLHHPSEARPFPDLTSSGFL
Chain of UniProt P11511 (P11511 whole entry, looked up): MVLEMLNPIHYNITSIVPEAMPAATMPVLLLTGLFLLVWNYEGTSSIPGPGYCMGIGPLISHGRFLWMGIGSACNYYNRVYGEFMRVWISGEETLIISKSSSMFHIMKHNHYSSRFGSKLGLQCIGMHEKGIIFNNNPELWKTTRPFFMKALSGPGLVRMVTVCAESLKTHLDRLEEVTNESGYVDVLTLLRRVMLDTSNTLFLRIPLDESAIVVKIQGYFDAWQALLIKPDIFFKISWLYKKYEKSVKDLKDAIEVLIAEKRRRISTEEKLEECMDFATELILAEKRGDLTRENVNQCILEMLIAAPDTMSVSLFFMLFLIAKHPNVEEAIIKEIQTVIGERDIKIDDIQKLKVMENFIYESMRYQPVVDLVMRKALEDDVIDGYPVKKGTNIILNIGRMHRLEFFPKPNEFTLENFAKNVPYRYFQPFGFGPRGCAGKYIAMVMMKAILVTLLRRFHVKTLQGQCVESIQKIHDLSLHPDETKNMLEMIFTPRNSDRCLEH
Chain of UniProt P37231 (P37231 whole entry, looked up): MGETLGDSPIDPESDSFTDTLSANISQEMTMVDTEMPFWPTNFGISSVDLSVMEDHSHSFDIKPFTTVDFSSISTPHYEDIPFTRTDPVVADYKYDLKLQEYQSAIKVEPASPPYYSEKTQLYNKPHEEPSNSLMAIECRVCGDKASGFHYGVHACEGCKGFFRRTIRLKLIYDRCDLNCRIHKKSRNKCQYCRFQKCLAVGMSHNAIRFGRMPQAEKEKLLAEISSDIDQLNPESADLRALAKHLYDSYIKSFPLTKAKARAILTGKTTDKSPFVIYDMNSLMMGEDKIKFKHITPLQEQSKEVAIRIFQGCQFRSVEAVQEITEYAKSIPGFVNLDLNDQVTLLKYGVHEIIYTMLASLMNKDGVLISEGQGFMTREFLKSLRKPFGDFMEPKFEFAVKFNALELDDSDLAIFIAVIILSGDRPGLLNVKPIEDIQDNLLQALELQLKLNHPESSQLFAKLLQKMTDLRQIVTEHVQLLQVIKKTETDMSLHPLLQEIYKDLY

CC(C)(CO)[C@@H](O)C(=O)NCCCC(=O)O
inactive: Potency [1] | Potency [2] | Potency [4]
inconclusive: ratio activity, negative = MMP loss [3] -0.582% | Potency [5] 29.8 µM | Potency [6] 11.9 µM | activation [7] 14.9% [phenotype inactive]

COc1ccc(CC2c3cc(OC)c(OC)cc3CC[N+]2(C)CCC(=O)OCCCCCOC(=O)CC[N+]2(C)CCc3cc(OC)c(OC)cc3C2Cc2ccc(OC)c(OC)c2)cc1OC (stereo not drawn)
active: Potency [8] 1.29 µM [inconclusive]
inactive: Potency [3] | Potency [5] | Potency [10] | Potency [11]
inconclusive: Potency [9] 4.06 µM [activator, full curve] | Potency [12] 4.56 µM [activator, partial curve]

CCCCOC(=O)C(=O)Nc1cccc(-c2nn[nH]n2)c1
inactive: Potency [1] | Potency [3] | Potency [6] | Potency [13]
inconclusive: Potency [14] 1.9 µM [rising, full curve, poor fit] | Potency [15] 16.8 µM [cytotoxic, single point]

C=C1CC2C3CCC4=CC(=O)C=C[C@]4(C)[C@@]3(F)[C@@H](O)C[C@]2(C)[C@@]1(O)C(=O)COC(C)=O (stereo partly drawn)
inconclusive: Potency [9] 0.0379 µM [activator, full curve] | Potency [5] 13.3 µM [cytotoxic, partial curve] | Potency [6] 8.41 µM [cytotoxic, full curve] | Potency [14] 30.1 µM [fluorescent] | activation [7] 2.5% [phenotype inactive] | Potency [17] 26.6 nM [rising, partial curve] | Potency [15] 29.8 µM [rising, partial curve, poor fit]
inactive: Potency [1] | Potency [16]
active: Potency [8] 0.0151 µM

CCCCCc1ccc(C)cc1O
inconclusive: Potency [2] 29.8 µM [cytotoxic, partial curve, poor fit] | Potency [8] 26.8 µM [cytotoxic] | Potency [18] 6.74 µM [rising, partial curve] | activity change, negative = inhibition [19] 5.61% | Potency [20] 33.5 µM [cytotoxic, single point] | Potency (Aromatase (Homo sapiens)) 23.7 µM [inhibitor, partial curve, poor fit] | Potency [11] 33.5 µM [activator, partial curve, poor fit]
active: Potency [3] 10.6 µM
inactive: Potency [9]

CS(=O)(=O)Nc1cc2occ(NC=O)c(=O)c2cc1Oc1ccccc1
inconclusive: ratio activity, negative = MMP loss [3] -25.8% | activity change, negative = inhibition [19] 33.1% | Potency [21] 33.5 µM
inactive: Potency [2] | Potency [5]

CCN(CC)C(=O)[C@]1(c2ccccc2)C[C@@H]1CN
inactive: Potency [2] | Potency [3]
inconclusive: Potency [6] 2.98 µM [rising, partial curve, poor fit] | Potency [18] 0.0107 µM [cytotoxic, full curve, poor fit]

CC(C)(C)c1ccc(CN2CCN(C(c3ccccc3)c3ccc(Cl)cc3)CC2)cc1 (stereo not drawn)
inconclusive: Potency [1] 18.8 µM [falling, partial curve, poor fit] | Potency [3] 29.8 µM [inhibitor] | activity change, negative = inhibition [9] 36.5% | activity change, negative = inhibition [19] -37.4% | Potency [14] 10.7 µM [rising, partial curve, poor fit] | Potency [10] 26.8 µM [cytotoxic, single point] | Potency [7] 33.5 µM [inhibitor, single point] | Potency (Aromatase (Homo sapiens)) 29.8 µM [inhibitor, partial curve]

CC(C)(C)NC(=O)[C@H]1CC[C@H]2[C@@H]3CC=C4C=C(C(=O)O)CC[C@]4(C)[C@H]3CC[C@]12C
inconclusive: Potency [3] 23.7 µM [activator, partial curve] | Potency [9] 1.51 µM [activator, single point] | Potency [5] 33.5 µM [cytotoxic, single point] | Potency [22] 33.5 µM [cytotoxic, single point] | Potency [23] 23.9 µM [rising, partial curve] | Potency [20] 13.3 µM [rising, full curve, poor fit] | Potency [10] 9.52 µM [rising, full curve] | Potency [15] 15 µM [rising, partial curve, poor fit] | activation [12] -16.8%
inactive: Potency [8] | Potency [24] | Potency [14]
